Measured values as given in PubChem BioAssay (NCATS).
Values joined by “and” are separate entries in the source; they are usually repeats but may differ in a detail not shown here. Identical values can stand only once. The inconclusive results got no clear call from the source; some entries with a clear call stand among them for comparison. No potency is given beside an inconclusive call; the fits are too rough. Active and inactive are the calls of the source. Calls follow the shape of the dose curve; as a rule, active = well fitted cell-killing curve with a large enough effect; inconclusive = small, poorly fitted or top-dose-only effect; inactive = no such curve, though single readings can be large or run the other way.

assay: qHTS of pediatric cancer cell lines to identify multiple opportunities for drug repurposing: Primary screen for SK-N-MC cells (AID 1347093); details: SK-N-MC viability, CellTiter-Glo luminescence, 48 h; activity change, negative = cytotoxic: at 46 µM (top of the series) unless noted
Source text: Drug repurposing or repositioning has been offered as a strategy for drug development in oncology programs. This approach has special potential for childhood cancers and other rare or orphan diseases, where the expected return on new drug development has been a disincentive to pharmaceuticals.
In this project we exploit the poly-pharmacology of drugs to discover new indications via phenotypic screening of a panel of 19 well-characterized cell lines derived from solid tumors seen in children and adolescents. The goal is to identify approved drugs with previously unrecognized anticancer properties that has the potential to reveal new mechanisms and biological processes involved in carcinogenesis or drug resistance. We employed a titration-based paradigm (quantitative high-throughput screening or qHTS), where all compounds were tested at multiple concentrations for their effect on cell viability. Concentration-response curves (CRCs) were derived directly from the primary screen, and both potency and efficacy values were used to identify compounds with robust bioactivity profiles. We screened the NIH Chemical Genomics Center (NCGC) Pharmaceutical Collection (NPC) and Mechanism Interrogation Plate (MIPE) small molecule collections of approved and investigational compounds against these cell lines; and measured metabolically active cells after 48 hours of compound treatment as a proxy for cell viability.
Assay Submitter: Nathalia J. Martinez, National Center for Advancing Translational Sciences, National Institutes of Health, Rockville, MD, USA; email: natalia.martinez@nih.gov
[1] Shen, M et al. Quantitative high-throughput phenotypic screening of pediatric cancer cell lines identifies multiple opportunities for drug repurposing. Oncotarget 2017 Dec 19;9(4):4758-4772. PMID 29435139.
The cells were obtained from University of North Carolina (UNC), Pediatric Preclinical Testing Program (PPT), and Coriell Institute (CI).
qHTS cell viability assay:
Cells were assayed in growth media at a density of 500-1,000 cells/well. Five microliters of cells were dispensed into 1,536-well, white, solid-bottom, TC-treated plates (Greiner Bio One) using a multidrop dispenser and incubated at 37 degrees C, 5% CO2, under a humidified atmosphere for 5 hours. Twenty-three nanoliters of compounds and controls (neutral control DMSO or positive control bortezomib at final concentration of 2.3 µM) were subsequently transferred by Kalypsys pintool. For primary screens, the MIPE collection was tested at 11-point dilutions (final concentrations range from 0.78 nM to 46 µM) and the NPC collection at 8-point dilutions (final concentrations range from 0.59nM to 46 µM). Compounds tested in follow-up screens were assayed at 11-point dilutions. Cells were incubated for 48 hours, followed by addition of 3 uL of CellTiter-Glo (Promega). After a 15 min incubation at room temperature, samples were analyzed for luminescence intensity using a ViewLux High-throughput CCD imager equipped with clear filters.
Potency is read from the fitted curve at half-maximal effect; tags tell the direction and shape of the fitted curve.

| SMILES | Potency | activity change, negative = cytotoxic |
| --- | --- | --- |
| CCCCC/C=C\C/C=C\C/C=C\C/C=C\CCCC(=O)NCC(=O)O | inconclusive [cytotoxic, partial curve] | – |
| CCOC(=O)CC(SP(=S)(OC)OC)C(=O)OCC (stereo not given) | inactive | – |
| C=CC[C@]1(O)CC[C@H]2[C@@H]3CCC4=CC(=O)CCC4=C3C=C[C@@]21C | inconclusive [cytotoxic, single point] | – |
| CN(C)CCc1c[nH]c2cccc(O)c12 | inconclusive [cytotoxic, full curve, poor fit] | – |
| CC1=NN=C(c2ccc(N)cc2)c2cc3c(cc2C1)OCO3 | inactive | – |
| CC(=O)Nc1ccc(OC[C@](C)(O)C(=O)Nc2ccc([N+](=O)[O-])c(C(F)(F)F)c2)cc1 | inconclusive [cytotoxic, partial curve] | – |
| Fc1ccc(C(OCCN2CCN(CCCc3ccccc3)CC2)c2ccc(F)cc2)cc1 | active: 9.35 µM and active: 10.6 µM | – |
| CCCOC(=O)Cc1ccc(OCC(=O)N(CC)CC)c(OC)c1 | inactive | – |
| O=C1CN=C(c2ccccc2)c2cc([N+](=O)[O-])ccc2N1 | inconclusive [cytotoxic, single point] | – |
| CCCN1CCC[C@@H]2Cc3nc(N)ncc3C[C@H]21 | inactive | – |
| COc1cc(OC)c(OC)cc1C=O | inconclusive [cytotoxic, full curve, poor fit] | inconclusive: -39.2% [cytotoxic] |
| CC(Cc1ccccc1)NCCn1cnc2c1c(=O)n(C)c(=O)n2C (stereo not given) | inconclusive [cytotoxic, full curve, poor fit] | – |
| N=c1c2c(-c3ccccc3)c(-c3ccccc3)n(Cc3ccccc3)c2ncn1C1CCC(O)CC1 (stereo not given) | active: 16.6 µM | – |
| O=C(N[C@H]1N=C(c2ccccc2F)c2cccc3c2N(CC3)C1=O)c1cc2ccccc2[nH]1 | inactive | – |
| CC[N+](CC)(CC)CC | inactive | – |
| CC1=C2[C@H]3OC(=O)[C@@H](C)[C@@H]3CC[C@@]2(C)C=CC1=O | inactive | – |
| Oc1ccc2c3c1O[C@H]1c4[nH]c5c(c4C[C@@]4(O)[C@@H](C2)N(CC2CC2)CC[C@]314)C[C@@]1(O)[C@H]2Cc3ccc(O)c4c3[C@@]1(CCN2CC1CC1)[C@H]5O4 | inactive | – |
| CCCCCCCCc1ccc(O)cc1 | inconclusive [cytotoxic, full curve, poor fit] | – |
| C[C@]12Cc3cn[nH]c3C[C@@H]1CC[C@@H]1[C@@H]2CC[C@@]2(C)[C@H]1CC[C@]2(C)O | inconclusive [cytotoxic, single point] | – |
| Nc1ccccc1C(=O)O | inactive | – |

| SMILES | Potency | activity change, negative = cytotoxic |
| --- | --- | --- |
| O=C1C(I)=CC(=C(c2cc(I)c(O)c(I)c2)c2ccccc2C(=O)O)C=C1I | inconclusive [cytotoxic, partial curve, poor fit] | – |
| C[C@]12CC[C@H]3[C@@H](CCC4=CC(=O)CC[C@@H]43)[C@@H]1CC[C@@H]2OC(=O)CCC1CCCCC1 | inconclusive [cytotoxic, single point] | – |
| CCN1C[C@]2(OC(=O)c3ccccc3NC(C)=O)CC[C@H](OC)[C@@]34[C@H]5CC6[C@@H](OC)C[C@](O)(C(C[C@@H]23)[C@@H]14)[C@@]5(O)[C@@H]6OC | inconclusive [cytotoxic, single point] | – |
| CC[C@@H](CO)NC(=O)[C@@H]1C=C2c3cccc4c3c(cn4C)C[C@H]2N(C)C1 | inactive | – |
| O=[N+]([O-])c1c2ccccc2cc2ccccc12 | inconclusive [cytotoxic, single point] | – |
| COC(=O)[C@@H](N)CCCN/C(N)=N/[N+](=O)[O-] | inactive | – |
| CO[C@H]1CCC(O[C@H]2C[C@H]([C@]3(C)CC[C@]4(C[C@H](O)[C@@H](C)[C@@H]([C@@H](C)C=C(C)C(=O)[C@H](C)C[C@H](C)C(=O)O)O4)O3)O[C@]3(O[C@@H]([C@H]4O[C@@](O)(CO)[C@H](C)C[C@H]4C)C[C@H]3C)[C@H]2C)O[C@H]1C (stereo not given in full) | active: 0.187 µM | – |
| CCNc1nc(Cl)nc(NCC)n1 | inactive | – |
| CCOP(=S)(OCC)O/N=C(\C#N)c1ccccc1 | inactive | – |
| Clc1cccc(SC2CCNCC2)n1 | inconclusive [cytotoxic, full curve, poor fit] | – |
| CCCC(C)C1(CC)C(=O)N=C(S)NC1=O (stereo not given) | inactive | – |
| CC(=O)OCC1=C(C(=O)O)N2C(=O)[C@@H](N)[C@H]2SC1 | inactive | – |
| c1ccc2c(c1)Sc1ccccc1N2CC1CN2CCC1CC2 (stereo not given) | inconclusive [cytotoxic, single point] | – |
| CC(C)(N)Cc1ccccc1Cl | inactive | – |
| CC(C)[C@H]1C(=O)N[C@H](CO)Cc2c[nH]c3cccc(c23)N1C | inconclusive [cytotoxic, full curve, poor fit] | – |
| CCOC(=O)c1cncn1C(C)c1ccccc1 (stereo not given) | inactive | – |
| Cc1ncc(CNC(=O)N(CCCl)N=O)c(N)n1 | inconclusive [cytotoxic, partial curve, poor fit] | – |
| O=C(N[C@@H]1N=C(c2ccccc2F)c2cccc3c2N(CC3)C1=O)c1cc2ccccc2[nH]1 | inconclusive [cytotoxic, partial curve, poor fit] | – |
| COC[C@@H](NC(C)=O)C(=O)NCc1ccccc1 | inconclusive [cytotoxic, single point] | – |
